# Reference: PubChem BioAssay AID1347165 (National Center for Advancing Translational Sciences (NCATS), 2019)
# “And” between values parts separate entries of the source, which are not always exact repeats. Equal values may be shown once. The campaign covered roughly 220,000 compounds. About 5,700 (2.6%) were called active. This list was built around the results that the source calls inconclusive (neither active nor inactive); the mix of calls is not that of the screen. Calls come from the whole dose curve; as a rule, active = well fitted inhibition curve with a large enough effect; inconclusive = small, poorly fitted or top-dose-only effect; inactive = no such curve, though single readings can be large or run the other way. Potencies of inconclusive entries are doubtful fits and often do not repeat.
# Target: Lysine-specific demethylase 5B (Homo sapiens) (UniProt Q9UGL1)
# Test: Primary screen for KDM5B Histone Demethylases FDH-coupled qHTS; note: nearly all actives have a fitted effect of over 70% in size; for activity change, negative = inhibition: 0% is about no effect
# Conditions: FDH-coupled NADH fluorescence (FDH is formaldehyde dehydrogenase); activity change, negative = inhibition: at 57.7 µM (top of the series) unless noted
# Outline: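 Inhibition is measured as reduced NADH fluorescence generation from FDH coupling to formaldehyde release. Truncated KDM5BΔAP at 200 nM final acts on H3K4me3 peptide (12.5 µM in substrate mix) in pH 7.5 HEPES buffer with Tween-20, 30 min, room temperature.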
# Potency is the fitted concentration of half-maximal effect; tags give direction and shape of the fitted curve.
# Sequence of UniProt Q9UGL1 (Q9UGL1 whole entry, looked up): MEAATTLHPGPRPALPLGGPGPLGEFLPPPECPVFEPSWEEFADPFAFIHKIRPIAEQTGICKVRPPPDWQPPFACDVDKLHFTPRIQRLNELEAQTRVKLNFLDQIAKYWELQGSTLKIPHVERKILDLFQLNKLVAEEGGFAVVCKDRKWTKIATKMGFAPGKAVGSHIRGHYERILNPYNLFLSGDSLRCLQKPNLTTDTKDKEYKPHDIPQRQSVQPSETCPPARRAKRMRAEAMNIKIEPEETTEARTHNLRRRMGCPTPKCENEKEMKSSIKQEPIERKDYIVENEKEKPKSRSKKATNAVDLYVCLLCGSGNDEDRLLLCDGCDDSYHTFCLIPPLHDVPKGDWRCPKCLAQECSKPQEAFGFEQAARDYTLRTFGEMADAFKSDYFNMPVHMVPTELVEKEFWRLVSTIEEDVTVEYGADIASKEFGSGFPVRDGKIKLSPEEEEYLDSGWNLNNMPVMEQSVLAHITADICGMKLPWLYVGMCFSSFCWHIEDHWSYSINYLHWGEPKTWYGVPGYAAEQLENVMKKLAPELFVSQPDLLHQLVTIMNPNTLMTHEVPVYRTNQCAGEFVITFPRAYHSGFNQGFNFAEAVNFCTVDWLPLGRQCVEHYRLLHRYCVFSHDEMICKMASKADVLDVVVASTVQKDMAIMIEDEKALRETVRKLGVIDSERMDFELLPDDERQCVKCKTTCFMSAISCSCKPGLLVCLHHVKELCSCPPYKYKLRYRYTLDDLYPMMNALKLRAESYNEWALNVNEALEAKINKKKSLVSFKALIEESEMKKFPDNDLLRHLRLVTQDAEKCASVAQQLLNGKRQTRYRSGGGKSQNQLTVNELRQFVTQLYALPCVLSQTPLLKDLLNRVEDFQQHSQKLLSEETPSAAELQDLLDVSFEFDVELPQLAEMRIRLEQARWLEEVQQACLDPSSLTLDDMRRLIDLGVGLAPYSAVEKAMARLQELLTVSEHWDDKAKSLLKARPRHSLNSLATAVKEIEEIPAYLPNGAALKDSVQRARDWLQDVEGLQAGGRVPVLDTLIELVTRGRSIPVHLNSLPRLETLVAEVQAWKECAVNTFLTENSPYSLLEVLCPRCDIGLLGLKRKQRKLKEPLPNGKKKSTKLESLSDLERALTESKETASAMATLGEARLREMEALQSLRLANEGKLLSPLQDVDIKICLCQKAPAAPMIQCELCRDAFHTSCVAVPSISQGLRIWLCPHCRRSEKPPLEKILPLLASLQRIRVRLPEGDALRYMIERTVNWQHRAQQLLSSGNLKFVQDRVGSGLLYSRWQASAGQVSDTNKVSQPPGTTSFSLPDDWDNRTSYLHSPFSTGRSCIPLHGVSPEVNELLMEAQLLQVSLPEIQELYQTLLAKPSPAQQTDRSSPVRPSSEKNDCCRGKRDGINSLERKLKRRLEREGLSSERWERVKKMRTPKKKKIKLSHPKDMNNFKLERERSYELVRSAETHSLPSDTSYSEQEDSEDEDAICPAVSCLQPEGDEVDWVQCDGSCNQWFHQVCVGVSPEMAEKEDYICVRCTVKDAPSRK
Structure (SMILES),"activity change, negative = inhibition",Potency
N#Cc1c(NC(=O)CS(=O)(=O)c2ccc(Cl)cc2)sc2c1CCCCC2,inconclusive: -30.2% [inhibitor],
CCc1ccc(-n2c(=O)c3cccnc3n2CC(=O)Nc2ccccc2C(F)(F)F)cc1,,"inconclusive: 28.2 µM [inhibitor, partial curve, poor fit]"
COc1ccc(-c2ccc(CCC(=O)O)n2CC(=O)Nc2cccc(C(F)(F)F)c2)cc1,,"inconclusive: 10 µM [inhibitor, partial curve, poor fit]"
Cc1ccccc1NC(=O)Cn1c(=O)c2cccn2c2ccccc21,,inactive
Cc1nnc(NC(=O)C(=O)c2cc(C)n(-c3ccc(C)c(C)c3)c2C)s1,,"inconclusive: 17.8 µM [inhibitor, partial curve, poor fit]"
CCCC(=O)c1ccc(OC(=O)c2c(-c3ccccc3Cl)noc2C)cc1,,"inconclusive: 1.58 µM [inhibitor, partial curve, poor fit]"
Cc1ccc(C(=O)Nc2ccc3oc(-c4ccncc4)nc3c2)c(Cl)c1,,"inconclusive: 31.6 µM [inhibitor, partial curve, poor fit] and inconclusive: 28.2 µM [inhibitor, partial curve, poor fit]"
COCCn1c(=N)c(C(=O)NCc2ccco2)cc2c(=O)n3cc(C)ccc3nc21,,"inconclusive: 11.2 µM [inhibitor, partial curve, poor fit]"
Cc1ccc2c(Cl)cc(Cl)c(OCC(=O)NC(=O)NC(C)C)c2n1,,inactive
C[S+](=O)([O-])c1ccc(-c2nc(C(=O)NCc3ccc(F)cc3)n3ccccc23)cc1,,active: 89.1 µM
COc1ccccc1-c1nccc2c(=O)cc(C3=CCOCC3)oc12,,"inconclusive: 39.8 µM [inhibitor, partial curve, poor fit]"
COc1ccc(C(=O)N2CCCC3(C2)Nc2cccnc2NC3=NC2CCCC2)cn1 (centres undefined),,"inconclusive: 25.1 µM [inhibitor, partial curve, poor fit]"
Cc1noc(C)c1CC(=O)NC1CCCc2c1[nH]c1ccc(F)cc21 (centres undefined),,"inconclusive: 20 µM [inhibitor, partial curve]"
Cc1nn(-c2ccccc2)c(OC(=O)C(C)(C)C)c1Sc1ccccc1,,"inconclusive: 3.98 µM [inhibitor, partial curve, poor fit]"
CC(C)C(NC(=O)c1ccccc1Cl)C(=O)NOCc1ccccc1 (centres undefined),,inactive
CC#CCn1cc2c3c(cccc31)[C@H](CC(C)C)N[C@H](C(=O)NC1CC1)C2,,"inconclusive: 39.8 µM [inhibitor, partial curve, poor fit]"
c1cncc(CN2CCN(Cc3c[nH]c4ccccc34)CC2)c1,,"inconclusive: 31.6 µM [inhibitor, single point]"
COc1cc(OC)cc(C(=O)/C(=C\c2ccncc2)c2nc3ccccc3o2)c1,,"inconclusive: 35.5 µM [inhibitor, partial curve, poor fit]"
Cc1ccc(Cn2c(SCc3ccc(C(=O)NC4CCCC4)cc3)nc3ccncc32)cc1,,"inconclusive: 22.4 µM [inhibitor, single point]"
Nc1nccnc1C(=O)NCC(=O)OCc1ccccc1,,"inconclusive: 25.1 µM [inhibitor, partial curve, poor fit]"
c1csc(CN2Cc3[nH]cnc3C[C@H]2c2nc(-c3ccncc3)no2)c1,,active: 28.2 µM
COC(=O)c1ccc(OC(=O)c2ccc3c(c2)NC(=O)CS3)c(OC)c1,,inactive

Structure (SMILES),"activity change, negative = inhibition",Potency
O=C(CSc1oc(-c2ccccc2)nc1S(=O)(=O)c1ccccc1)c1ccccc1,,"inconclusive: 5.01 µM [inhibitor, partial curve, poor fit]"
CC1CCCCN1C(=O)CSc1nc2ccccc2c(=O)[nH]1 (centres undefined),,inactive
COc1cccc(NC(=O)c2ccc3nc(Cc4ccccc4)oc3c2)c1,,"inconclusive: 28.2 µM [inhibitor, partial curve, poor fit]"
CC(C)Cn1cc(NC(=O)NCc2ccccc2Cl)c2ccccc2c1=O,,"inconclusive: 17.8 µM [inhibitor, partial curve, poor fit]"
CC(NC(=O)C1CCN(S(=O)(=O)c2ccc3nc4c(c(C(=O)O)c3c2)CCCC4)CC1)c1ccccc1 (centres undefined),,"inconclusive: 35.5 µM [inhibitor, single point]"
O=C(CC(=O)c1ccccc1)Nc1ccccc1C(F)(F)F,,"inconclusive: 28.2 µM [inhibitor, partial curve, poor fit]"
CCCc1cc(=O)oc2cc(C)cc(OCC(=O)NCCCn3ccnc3)c12,,"inconclusive: 22.4 µM [inhibitor, partial curve, poor fit]"
CCC[C@@H]1CN(c2cc(OC)nc(N)n2)C[C@H]1C(=O)O,,"inconclusive: 10 µM [inhibitor, partial curve, poor fit]"
Cc1cnc(C(=O)OCc2ccccc2Cl)cn1,,inactive
COc1ccc(-c2cnc(Nc3ccc(CN4CCN(C)CC4)cc3)c3c2CCO3)cn1,,"inconclusive: 28.2 µM [inhibitor, partial curve, poor fit]"
CCN(CC)C(=O)CSC1=C(C#N)C(c2ccco2)C(C(=O)Nc2ccc(F)cc2)=C(C)N1 (centres undefined),,"inconclusive: 35.5 µM [inhibitor, partial curve, poor fit]"
C[C@H](NC(=O)[C@@H]1Cc2ccccc2CN1C(=O)OC(C)(C)C)C(=O)Nc1ccc2c(c1)OCCO2,,inactive
COc1ccc(C2CC(=O)c3c(C)nc(Nc4ccc(F)cc4)nc3C2)c(OC)c1 (centres undefined),,inactive
CCN1c2cc(C(=O)NCc3ccccc3)ccc2C(=O)N2CCCCCC21 (centres undefined),,"inconclusive: 22.4 µM [inhibitor, partial curve, poor fit]"
O=C(NC(c1ccccc1)c1cc2ccccc2o1)C1CCC1 (centres undefined),,inactive
Cc1nn(CC(=O)N2CCCCC2)c(=O)c2cc3occc3n12,,inactive
COc1ccc(Cl)cc1C(=O)NCc1nnc2cc(-c3nc(C)no3)ccn12,,"inconclusive: 3.16 µM [inhibitor, single point]"
Cc1cccc(C(C)NNC(=O)C(O)(c2cccc(C)c2)c2cccc(C)c2)c1 (centres undefined),,inactive
c1ccc(-c2cc3c(cn2)CN(Cc2c[nH]c4ccccc24)CCN3)cc1,,inactive
Cc1ccc(Cl)cc1NC(=O)CCS(=O)(=O)c1ccc2c(c1)n(C)c(=O)c(=O)n2C,inconclusive: -30.1% [inhibitor],
Cn1nc(C(=O)Nc2ccc(OCC(N)=O)cc2)c2ccccc2c1=O,,inactive
Cc1ccc(CN(Cc2ccco2)c2cnc(S(C)(=O)=O)nc2C(=O)Nc2ccccc2Br)o1,,"inconclusive: 17.8 µM [inhibitor, partial curve, poor fit]"

Structure (SMILES),"activity change, negative = inhibition",Potency
COCCNC(=O)[C@@H]1C[C@H](Oc2cccnc2)CN1C(=O)Cc1c[nH]c2ccccc12,,"inconclusive: 35.5 µM [inhibitor, partial curve, poor fit]"
COc1ccc(CNC(=O)Cn2nc(C)c3c(C)n(-c4ccccc4)nc3c2=O)cc1OC,,"inconclusive: 14.1 µM [inhibitor, partial curve, poor fit]"
COCCNC(=O)c1cnc2c(c1)N(C(=O)Cc1cn(C)c3ccccc13)CCC2,,"inconclusive: 35.5 µM [inhibitor, partial curve]"
CCNC(=O)c1cccnc1OC1CCN(C(=O)c2ccc(C)c(F)c2)C1 (centres undefined),,"inconclusive: 15.8 µM [inhibitor, partial curve]"
Cc1ccccc1CN1Cc2nc(N3CCCC3)ccc2OCC1=O,,"inconclusive: 35.5 µM [inhibitor, single point]"
Cc1nc(CN2CCN(C(=O)CC3COCCN3)CC2)cs1 (centres undefined),,inactive
CCS(=O)(=O)N[C@@H]1CN(C2CCOCC2)C[C@H]1CN(C)C,,"inconclusive: 14.1 µM [inhibitor, partial curve]"
O=C(c1ccccn1)N1CCC[C@H]1c1nc(-c2ccccc2)no1,,inactive
O=C1N(C2CCN(Cc3ccncc3)CC2)C(c2ccncc2)C12CCCCC2 (centres undefined),,"inconclusive: 14.1 µM [inhibitor, partial curve]"
Cc1ccc(-c2noc([C@@H]3Cc4nc[nH]c4CN3Cc3cccc(C#N)c3)n2)cc1,,"inconclusive: 31.6 µM [inhibitor, partial curve, poor fit]"
COCCNc1ncccc1-c1noc([C@@H]2CCCN2CC(C)(C)C)n1,,active: 35.5 µM
O=C(/C=C/C(=O)c1ccc(Cl)cc1)c1ccccc1,,"inconclusive: 2.24 µM [inhibitor, full curve, poor fit]"
COc1ccc2[nH]c3c(c2c1)CCN(C)C31CCN(C(=O)c2ccccc2F)CC1,,"inconclusive: 35.5 µM [inhibitor, partial curve, poor fit]"
CCc1cc(=O)oc2cc(C)cc(OCC(=O)NCCCn3ccnc3)c12,,"inconclusive: 25.1 µM [inhibitor, partial curve, poor fit]"
COc1ccc(Cl)cc1C(=O)Nc1ccc(-n2cnnn2)cc1,,inactive
CCOc1ccc(N(Cc2cc3cccc(C)c3[nH]c2=O)C(=O)C(C)C)cc1,,inactive
O=C(CC1C(=O)NCCN1CC(c1ccccc1)c1ccccc1)NCC1CCOCC1 (centres undefined),,"inconclusive: 17.8 µM [inhibitor, single point]"
CCc1ccccc1NC(=O)c1cc2c(=O)[nH]c(C)cn2n1,,inactive
Cc1ccc(NC(=O)c2c(NC(=O)c3ccccc3)sc3c2CCC3)cc1,,"inconclusive: 39.8 µM [inhibitor, single point]"
CC(C)C(C)(C#N)NC(=O)CC1CC2CCC1C2 (centres undefined),,inactive
